# PubChem BioAssay AID588795 (National Center for Advancing Translational Sciences (NCATS), 2011)
# The campaign covered roughly 390,000 compounds. About 1,400 (0.36%) were called active. The shares of active, inactive and inconclusive entries below differ from those in the screen. Calls follow the shape of the dose curve; as a rule, active = well fitted inhibition curve with a large enough effect; inconclusive = small, poorly fitted or top-dose-only effect; inactive = no such curve, though single readings can be large or run the other way. Potencies of inconclusive entries are doubtful fits and often do not repeat.
# Target: Flap endonuclease 1 (Homo sapiens) (UniProt P39748)
# UniProt P39748, sequence (P39748 whole entry, looked up): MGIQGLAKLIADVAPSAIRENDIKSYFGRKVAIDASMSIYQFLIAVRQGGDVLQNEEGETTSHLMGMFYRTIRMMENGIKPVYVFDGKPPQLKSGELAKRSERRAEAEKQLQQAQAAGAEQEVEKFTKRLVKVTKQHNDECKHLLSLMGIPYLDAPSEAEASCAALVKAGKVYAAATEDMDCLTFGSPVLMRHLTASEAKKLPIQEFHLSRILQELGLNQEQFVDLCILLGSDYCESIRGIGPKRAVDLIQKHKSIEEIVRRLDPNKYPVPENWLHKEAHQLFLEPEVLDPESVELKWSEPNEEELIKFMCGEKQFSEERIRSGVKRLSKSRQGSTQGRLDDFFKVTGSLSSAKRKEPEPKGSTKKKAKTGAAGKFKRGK
# Experiment: qHTS Assay for the Inhibitors of Human Flap endonuclease 1 (FEN1). Also: nearly all actives have a fitted effect of over 65% in size.
# Settings: Recombinant FEN1 flap cleavage, fluorescence, 15 min; series mostly up to 114 µM; activity change, negative = inhibition: at the top concentration
# In short: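 Recombinant FEN1 (10 nM) was preincubated with pin-transferred compounds for 15 min at room temperature, then flap DNA substrate (50 nM final) was added. Plates were read at 0 and 15 min, and normalized concentration–response data were fitted to a four-parameter Hill equation.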
# % is scaled to controls: 0 for no effect and ±100 for the full control effect; potency is read from the fitted curve at half-maximal effect; tags tell the direction and shape of the fitted curve.
SMILES,"activity change, negative = inhibition",Potency
O=C(C[N+]1(CC(O)c2ccccc2)CCOCC1)c1ccccc1 (stereo not drawn),inactive: 18.7%,–
COc1cccc(CC(=O)N2CCN(c3ccccc3[N+](=O)[O-])CC2)c1,–,"inconclusive: 100 µM [inhibitor, partial curve, poor fit]"
c1ccc(-c2ccccc2OCCOCCN2CCOCC2)cc1,inactive: -16.6%,–
CCN(CC)CCOC(=O)c1ccc(N/C=C(/C#N)c2nc(-c3ccc(OC)c(OC)c3)cs2)cc1,–,"inconclusive: 25.1 µM [inhibitor, partial curve]"
CN(C)c1ccc(/C=C2\SC(=S)N(Nc3ncc(C(F)(F)F)cc3Cl)C2=O)cc1,–,"inconclusive: 28.2 µM [inhibitor, full curve]"
CCOc1ccccc1NC(=O)c1nn(C)c2c1CSc1ccccc1-2,–,"inconclusive: 44.7 µM [inhibitor, partial curve, poor fit]"
CCOC(=O)c1cc(S(=O)(=O)Nc2ccccc2OCC)[nH]n1,inactive: -7.63%,–
C=CCn1c(SCc2nc3scc(-c4ccccc4)c3c(=O)[nH]2)nnc1-c1ccccc1F,inactive: -12.6%,–
O=C(Nc1nnc(SCc2ccc(Cl)cc2Cl)s1)C1COc2ccccc2O1 (stereo not drawn),–,"inconclusive: 25.1 µM [inhibitor, partial curve, poor fit]"
O=C(N/N=C/c1ccncc1)c1ccc(NC(=O)c2ccc(Cl)cc2)cc1,inactive: -3.41%,–
COc1cc(NS(=O)(=O)c2ccc(NC(=S)NC(=O)c3sc4ccccc4c3Cl)cc2)ncn1,–,"inconclusive: 89.1 µM [inhibitor, partial curve, poor fit]"
O=c1oc2ccccc2c2c1ccc1ccccc12,–,"inconclusive: 89.1 µM [inhibitor, single point]"
O=C(/C=C/c1ccco1)NC(=S)Nc1ccccc1N1CCCC1,–,"inconclusive: 22.4 µM [inhibitor, partial curve, poor fit]"
COc1ccc(Cl)cc1NC(=O)COC(=O)/C=C/c1c(C)nn(C2CCS(=O)(=O)C2)c1Cl (stereo not drawn),inactive: 14.5%,–
CCOc1ccc(CNC(=O)C2CCCN(c3nn4cc(-c5ccc(OC)cc5)nc4s3)C2)cc1 (stereo not drawn),inactive: 14.6%,–
O=C(N/N=C/c1cc(Cl)c(O)c(Cl)c1)c1cc2c(ccc3ccccc32)o1,–,active: 50.1 µM
O=C(CC1SC(=Nc2ccccc2)N(CCc2ccccn2)C1=O)Nc1ccc(F)cc1 (stereo not drawn),–,"inconclusive: 31.6 µM [inhibitor, partial curve, poor fit]"
N/C(=N\OC(=O)c1ccc2ccccc2c1)c1ccncc1,inactive: -0.435%,–
CC(C)(C)c1cc(C(=O)NCC(=O)OCC(=O)c2cccc([N+](=O)[O-])c2)cc(C(C)(C)C)c1,–,"inconclusive: 79.4 µM [inhibitor, partial curve, poor fit]"
Cn1c2ccccc2c2cc(/C=N/NC(=O)c3cc(O)cc(O)c3)ccc21,–,active: 39.8 µM
CCc1nc2c(c(=O)c3ccccc3n2C)c(=O)n1C1CCCCCC1,–,"inconclusive: 79.4 µM [inhibitor, partial curve]"

SMILES,"activity change, negative = inhibition",Potency
COc1ccc2c(c1)c1c(c(=O)n(-c3cc(Cl)ccc3C)c(=O)n1CC(=O)N1CCCC1)n2C,–,"inconclusive: 3.55 µM [inhibitor, partial curve, poor fit]"
COc1cc(C2c3c([nH]c(=O)[nH]c3=O)Nc3ccc4ccccc4c32)cc(OC)c1OC (stereo not drawn),–,active: 28.2 µM
Cc1ccc(S(=O)(=O)/N=C2\C=C(NS(=O)(=O)c3ccccc3)C(=O)c3ccccc32)cc1,–,"inconclusive: 89.1 µM [inhibitor, single point]"
CCCOc1ccc2c3c(c(=O)oc2c1OCCC)CCC3,–,"inconclusive: 89.1 µM [inhibitor, partial curve, poor fit]"
CN1CCN(C2=CC3=CC(=C(C#N)C#N)CCC3CC2)CC1 (stereo not drawn),inactive: -7.85%,–
CC(C)(C)c1ccc(OCCC(=O)OCC(=O)NC(=O)NC2CCCC2)cc1,–,"inconclusive: 50.1 µM [inhibitor, partial curve, poor fit]"
CC(=O)Nc1ccc(S(=O)(=O)/N=C2\SCCN2S(=O)(=O)c2ccc(NC(C)=O)cc2)cc1,inactive: -4.1%,–
C=C(C)[C@@H]1C2=CC(C(=O)OC)=C(C[C@@H](C(=C)C)[C@H]3O[C@H]3C3=C[C@H]1OC3=O)O2,inactive: -0.635%,–
Cc1c(C(=O)OCc2ccccc2)[nH]c2c1C(=O)CC(c1ccco1)C2 (stereo not drawn),–,"inconclusive: 12.6 µM [inhibitor, full curve, poor fit]"
CC1=CC(C)(C)Nc2ccc(OC(=O)C(C)N3C(=O)c4ccccc4C3=O)cc21 (stereo not drawn),–,"inconclusive: 44.7 µM [inhibitor, partial curve, poor fit]"
COc1ccc(-c2noc(N3CCC(C(=O)N4CCN(c5cccc(OC)c5)CC4)CC3)n2)cc1,inactive: -20.8%,–
CCN1CCCC1CNC(=O)c1ccc2c(c1)NC(=O)/C(=C\c1ccc(C)cc1)S2 (stereo not drawn),–,"inconclusive: 50.1 µM [inhibitor, partial curve, poor fit]"
CCOC(=O)c1c(C)[nH]c(C)c1S(=O)(=O)NCC(=O)Nc1cccc(Cl)c1,inactive: -3.9%,–
Oc1cccc(/C=N/NC(=S)Nc2cccnc2)c1O,–,"inconclusive: 89.1 µM [inhibitor, single point]"
CC1CCc2c(sc3ncnc(NS(=O)(=O)c4cccs4)c23)C1 (stereo not drawn),inactive: -4.04%,–
Cc1ccccc1NC(=O)C1Cc2ccccc2C(=O)O1 (stereo not drawn),inactive: 4.27%,–
CCN1/C(=C/C=C/c2oc3ccc(-c4ccccc4)cc3[n+]2CC)Oc2ccc(-c3ccccc3)cc21,–,active: 31.6 µM
CN(C)c1ccc(/C=C/C(=O)c2ccccc2O)cc1,–,"inconclusive: 100 µM [inhibitor, single point]"
O=C1Nc2ccc(I)cc2C1=Cc1cc(Br)c(O)c(Br)c1,–,active: 35.5 µM
COc1ccccc1NS(=O)(=O)c1ccc(N/N=C/c2ccccc2OCC(=O)O)c([N+](=O)[O-])c1,–,"inconclusive: 79.4 µM [inhibitor, partial curve, poor fit]"
CCN(CC)CCOC(=O)c1ccc(NC(=O)CCCN2C(=O)/C(=C/c3cccs3)SC2=S)cc1,–,"inconclusive: 44.7 µM [inhibitor, partial curve, poor fit]"

SMILES,"activity change, negative = inhibition",Potency
O=C(Cc1cccs1)Nc1ccc(S(=O)(=O)Nc2ncccn2)cc1,–,"inconclusive: 89.1 µM [inhibitor, single point]"
CC1(C)CC(=O)C2=C(C1)N1C(=C(C#N)C2c2ccc(Cl)cc2)N=C(N)c2ccccc21 (stereo not drawn),–,"inconclusive: 11.2 µM [inhibitor, partial curve, poor fit]"
Cc1c(Br)c(O)c(Br)c2sc(=O)oc12,–,"inconclusive: 44.7 µM [inhibitor, partial curve]"
C=C1CN(CC(=O)OC)S(=O)(=O)c2ccccc21,–,"inconclusive: 100 µM [inhibitor, partial curve, poor fit]"
COc1ccc(S(=O)(=O)/N=C2\C=C(NS(=O)(=O)c3ccccc3)C(=O)c3ccccc32)cc1,–,"inconclusive: 56.2 µM [inhibitor, partial curve, poor fit]"
CN(C(=O)COC(=O)c1ccc(=O)n(Cc2ccccc2)n1)c1ccccc1,–,"inconclusive: 89.1 µM [inhibitor, single point]"
Cc1cc(N2C(=O)C(O)=C(C(=O)c3cc4ccccc4o3)C2c2cccs2)no1 (stereo not drawn),–,"inconclusive: 50.1 µM [inhibitor, partial curve, poor fit]"
COc1ccc(CCNc2oc(COc3ccccc3)nc2C#N)cc1,–,"inconclusive: 50.1 µM [inhibitor, partial curve, poor fit]"
Cc1ccc(-n2c(N)c(C(=O)N3CCN(C)CC3)sc2=S)cc1,inactive: 0.622%,–
CCC1=NN2C(=N)/C(=C\c3cccn3-c3ccc(Cl)cc3)C(=O)N=C2S1,inactive: -0.891%,–
COc1cc(/C=C(/C#N)c2nc3ccccc3[nH]2)ccc1OCC(=O)Nc1ccccc1C(C)C,–,"inconclusive: 31.6 µM [inhibitor, partial curve, poor fit]"
COc1ccc2[nH]c(C)cc2c1,inactive: -0.378%,–
CCCc1nc(SCC(=O)N2CCc3ccccc3C2)c2ccccc2n1,–,"inconclusive: 89.1 µM [inhibitor, partial curve, poor fit]"
COc1ccc(N2CSC3=C(C#N)C(c4ccc(OC)c(OC)c4)CC(=O)N3C2)c(OC)c1 (stereo not drawn),–,"inconclusive: 14.1 µM [inhibitor, partial curve, poor fit]"
Cn1nnc(NC(=S)NC(=O)/C=C/c2ccco2)n1,–,"inconclusive: 56.2 µM [inhibitor, partial curve, poor fit]"
CCN(CC)CCOC(=O)c1ccc(N/C=C(/C#N)c2nc(-c3cc4ccccc4oc3=O)cs2)cc1,–,"inconclusive: 39.8 µM [inhibitor, full curve]"
c1ccc(Nc2ccc3c4c(cccc24)CC3)cc1,–,"inconclusive: 89.1 µM [inhibitor, partial curve, poor fit]"
NS(=O)(=O)c1ccc(CCNC(=O)COC(=O)c2ccc([N+](=O)[O-])o2)cc1,–,"inconclusive: 20 µM [inhibitor, full curve]"
N#CC1=C(S)N(c2ccccc2)C(c2ccc(-c3cccc(Cl)c3)o2)NC1=O (stereo not drawn),–,"inconclusive: 89.1 µM [inhibitor, partial curve, poor fit]"
COc1ccc(-c2nn(-c3ccccc3)cc2/C=C2/SC(=S)N(CCC(=O)O)C2=O)c(C)c1,–,"inconclusive: 79.4 µM [inhibitor, partial curve]"
COc1cccc(C(=O)Nc2cccc(C(=O)NC3=NN(c4c(Cl)cc(Cl)cc4Cl)C(=O)C3)c2)c1,–,"inconclusive: 89.1 µM [inhibitor, partial curve, poor fit]"
